Assay results reported in PubChem BioAssay AID602293 (National Center for Advancing Translational Sciences (NCATS), 2012).
In all, about 1,300 compounds went through this assay and about 30 (2%) were called active. Not shown: some 10% with an inconclusive outcome. Calls follow the shape of the dose curve; as a rule, active = well fitted inhibition curve with a large enough effect; inconclusive = small, poorly fitted or top-dose-only effect; inactive = flat fitted curve, though single readings scatter. Some of the results follow.

Assay: qHTS for antagonists of the Thyroid Stimulation Hormone Receptor: Hit Validation in HTRF Activity in a Luteinizing Hormone Receptor Cell Line
Conditions: LHR-expressing cell line, cAMP HTRF, antagonist mode; series mostly up to 58 µM; activity change, negative = inhibition: at the top concentration
Procedure, shortened: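 Counter-screen on LH receptor–transfected HEK 293 cells: 30 min compound exposure at room temperature in medium containing 100 uM RO 20-1724 phosphodiesterase inhibitor. Cellular cAMP read by competitive HTRF after lysis with d2-cAMP and anti-cAMP antibody (330 nm excitation; 615/660 nm emission).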
% is scaled to controls: 0 for no effect and ±100 for the full control effect.

Activity change, negative = inhibition, inactive:
COc1ccc(-c2nnc(NC(=O)c3ccc(S(=O)(=O)N4CCCc5ccccc54)cc3)o2)cc1 -0.489%
COc1ccc(CNC(=O)CCS(=O)(=O)c2ccc3c(c2)CCN3C(C)=O)cc1 2.64%
N#CC(C#N)=NNc1ccc(S(=O)(=O)N2CCCCC2)cc1 -0.397%
CN(C)c1ccc(NC(=O)C2C3C=CC(C3)C2C(=O)O)cc1 (stereo not drawn) -0.913%
Nc1nc2nc(-c3ccccc3)cc(C(F)(F)F)c2s1 1.46%
CCOc1ccc(CN(C)c2ccc(S(=O)(=O)N3CCN(C)CC3)cc2[N+](=O)[O-])cc1OC -0.472%
O=C(c1ccc(Cl)c(S(=O)(=O)N2CCCCC2)c1)N1CCCC1 1.04%
CCCCOc1ncnc2c1[nH]c1ccccc12 -2.8%
O=C(c1ccc2c(=O)n(Cc3ccc4c(c3)OCO4)c(=S)[nH]c2c1)N1CCCCC1 -0.164%
COC(=O)c1ccc(NC(=O)Nc2ccc(F)c(Cl)c2)cc1 -2.51%
O=C(Nc1cccc(S(=O)(=O)Nc2ccc(Cl)cc2)c1)c1ccc2c(c1)OCCO2 -0.572%
Nc1nnc(COc2ccc(Br)cc2Br)s1 2.07%
COc1cc(C(C)=O)ccc1OCC(=O)Nc1ccc(Cl)c(S(=O)(=O)N2CCOCC2)c1 -7.28%
CCCCn1c(-c2c(Cl)c(C)nn2C)n[nH]c1=S 2.87%
COc1ccc(CCNC(=O)c2ccc(-c3ccc([N+](=O)[O-])cc3Cl)o2)cc1OC -3.25%
Nc1nc(SCC(=O)NCC2CCCO2)[nH]c(=O)c1NC(=O)c1ccc(F)c(F)c1 (stereo not drawn) 2.07%
Cc1ccccc1-c1cc(C(=O)Nc2sc(C(=O)OC(C)C)c(C)c2C#N)c2ccccc2n1 -2.46%
CC(Sc1nnc(-c2cccs2)n1Cc1ccccc1)C(=O)NCc1ccc2c(c1)OCO2 (stereo not drawn) -1.32%
COc1ccc(C2=NS(=O)(=O)N(C)C(C(=O)Nc3ccc4c(c3)OCO4)=C2)cc1OC -5.74%
N#C/C(=N\Nc1ccc(S(=O)(=O)N2CCc3ccccc32)cc1)C(N)=S 0.812%
Cc1ccc(OCc2cc(C(=O)NC3CCCCC3)no2)cn1 -0.815%
Cc1cc(NC(=O)c2cc(-c3ccco3)on2)nn1Cc1ccc(Cl)cc1 -5.37%
COc1cc(/C=N/OCC(=O)NC23CC4CC(CC(C4)C2)C3)ccc1OCc1ccccc1 -8.02%
Cc1cc(C(=O)CSc2nnc(-c3ccccc3F)o2)c(C)n1Cc1cccs1 -3.03%
Cc1cc(C)c2oc(C(=O)Nc3ccc(S(=O)(=O)Nc4nccc(C)n4)cc3)cc(=O)c2c1 1.23%
Cc1cc(Br)ccc1OCC(=O)NC1CCCC1 -3.6%
COc1ccc(/C=C/C(=O)c2ccc(NS(=O)(=O)c3ccc(C)cc3)cc2)cc1O -4.06%
CCN(C(=O)CSc1nnc(-c2ccccc2)o1)c1c(N)n(Cc2ccccc2)c(=O)[nH]c1=O -0.973%
